Source: the RNAGym collection of RNA variant scans (doi:10.7554/elife.90254)
Read counts are not given, so values of variants with three or more changes are uncertain.

B1: LINE1-mini (parent)
chain: GGCAGAGCUCAACACAGCGUGGCAAAGUGGCUGUGGCUAGACUGCC

Variants of: B1
Assay: self-cleavage, relative activity (ratio to wild type); higher = more cleavage; in vitro, sequencing; the parent is a self-cleaving ribozyme

Row | Variant | self-cleavage
1 | GGCAGAGCUCAACACAGCGUUGCAAAGUGGCUGUGGUUAUACUGCC | 0.3
2 | GGCAGAGCUCAACACAGCGUAGCAUAGUGGCUGUGGCUAGACUGCU | 1.88
3 | GGCAGAGCUCAACACAGCGUUGCAAAGUUGCUUUGGCUAGACUGCC | 0.25
4 | GGCAGAGCUCAACACAGCGUUGCUAAGUGGCUGUGGAUAGACUGCC | 0.03
5 | GGCAGAGCUCAACACAGCGUCGUAAAGUGACUGUGGCUGGACUGCC | 0.06
6 | GGCAGAGCUCAACACAGCGUCUCAAAGUGGCCGUGGCUAGACUGCC | 0.33
7 | GGCAGAGCUCAACACAGCGUCGCAAAGUGCCGGUGGCUAGACUGCA | 0.02
8 | GGCAGAGCUCAACACAGCGUAGCAAAGUGGCUGUAGCAAGACCGCC | 0.03
9 | GGCAGAGCUCAACACAGCGUUGCAAUGUGGCUAUGGCUAGACUGGC | 0.03
10 | GGCAGAGCUCAACACAGCGUCGCAAAGUGGCUGUGGUUAGAAUGCA | 0.01
11 | GGCAGAGCUCAACACAGCGUAGGAAAGUGGCUGUGUCUAGACUGCC | 0.05
12 | GGCAGAGCUCAACACAGCGUUCCAAAGUCGCUCUGGCUAGACUGCC | 0.36
13 | GGCAGAGCUCAACACAGCGUCGCGAAGUGGCUGUGUUUAGACUGCC | 0.02
14 | GGCAGAGCUCAACACAGCGUCGCAAAGUGGCUGUGGCUAGAUUACC | 0.15
15 | GGCAGAGCUCAACACAGCGUUGCAAAAUGGCUGUGGCUAGACUGCU | 0.36
16 | GGCAGAGCUCAACACAGCGUUGCAAAGUGGCUGUGGCUAGGCAGCC | 0.04
17 | GGCAGAGCUCAACACAGCGUCUAAAAGUGGCUGUGGCUAGACUGCC | 0.67
18 | GGCAGAGCUCAACACAGCGUAGCAAAGUGGCUGUGGCUAGCCCUCC | 0.06
19 | GGCAGAGCUCAACACAGCGUUGCAAAGUGGAAGUGGCUAGUCUGCC | 0.08
20 | GGCAGAGCUCAACACAGCGUAGCAAAGUGGCGGUGGCUAUACUGCC | 0.06
21 | GGCAGAGCUCAACACAGCGUAGCAAAGUGGCUCUGGCUAAACUCCC | 0.02
22 | GGCAGAGCUCAACACAGCGUCCCAAAGUGACUGUGGCUAGACUGCG | 0.09
23 | GGCAGAGCUCAACACAGCGUAGGAAAGUGGCUGUGGCUAGACUUCC | 0.13

Row | Variant | self-cleavage
24 | GGCAGAGCUCAACACAGCGUCGGAAAGUGGUUGUGGCAAGACUGCC | 0.22
25 | GGCAGAGCUCAACACAGCGUUGCAAAGUGCUUGUGGCUAGACUCCC | 0.06
26 | GGCAGAGCUCAACACAGCGUAGCACAGUGGCUCUGGCUAGACUGCC | 0.03
27 | GGCAGAGCUCAACACAGCGUUGCAAAUUGGCUGCGGCAAAACUGCC | 0.01
28 | GGCAGAGCUCAACACAGCGUCGUAUAGUGGCUGUGGCUAGACUGCC | 0.2
29 | GGCAGAGCUCAACACAGCGUAACAAAGUGGCUGGGGCUAGAAUCCC | 0.1
30 | GGCAGAGCUCAACACAGCGUUGAAAAGUGGCUGUGGCUACACUGCC | 0.02
31 | GGCAGAGCUCAACACAGCGUUGCAAAGUGGAUGUGGCUACACUGCC | 0
32 | GGCAGAGCUCAACACAGCGUCGCAAAGUGGCUGUGGCUAGACCGUC | 0.04
33 | GGCAGAGCUCAACACAGCGUAGCAAAGUGGCUGUUGCUAGAAUGCC | 0.08
34 | GGCAGAGCUCAACACAGCGUUGCAAAAUGGCUGUGACUAGACUGCC | 0.53
35 | GGCAGAGCUCAACACAGCGUUGCAAAGUUGCUGUGGCGAGACUAGC | 0.04
36 | GGCAGAGCUCAACACAGCGUCGCAAAGUGGCUGUGGCUAGACUGGG | 0.16
37 | GGCAGAGCUCAACACAGCGUUACAAAGUGGCUGUUGCUAGACUGCC | 0.41
38 | GGCAGAGCUCAACACAGCGUAGCAAAGUGAAUGUGGCUAGACUGCA | 0.22
39 | GGCAGAGCUCAACACAGCGUAGAAAAGUGGGUGUGGCUAGACUGCC | 0.12
40 | GGCAGAGCUCAACACAGCGUUGCAAAUUGGCUGUGGCUAGACAGCC | 0.03
41 | GGCAGAGCUCAACACAGCGUUGCUAAGUGGCUGUGGCUAGACAGCC | 0.03
42 | GGCAGAGCUCAACACAGCGUAGCAAAGUGGCUGUGUCUAGACUACG | 0.04
43 | GGCAGAGCUCAACACAGCGUUGCAAAGUGGCUGUGGGGAGACUGCC | 0.01
44 | GGCAGAGCUCAACACAGCGUAGCAAAGUGGCUGUCGCUUGACUGCC | 0.08
45 | GGCAGAGCUCAACACAGCGUAGCAAAGUGCCUGUGGCUUGAAUGCC | 0.02
46 | GGCAGAGCUCAACACAGCGUAGCAAAAUGGCUGUGGCUAGACUACC | 0.36

Row | Variant | self-cleavage
47 | GGCAGAGCUCAACACAGCGUAGCAAAUUGGCUGUGGCUAGACUUCC | 0.11
48 | GGCAGAGCUCAACACAGCGUAGCAAAGUUGCUGUGGCUAGAUUGCC | 1.05
49 | GGCAGAGCUCAACACAGCGUUGCGAAGUGGCUGUGGCAAGACUGCC | 0.84
50 | GGCAGAGCUCAACACAGCGUAAUAAAGUGGCUGUGCCUAGACUGCC | 0.51
51 | GGCAGAGCUCAACACAGCGUAGCAAAGCGUCUGUGGCUAGACUUCC | 0.4
52 | GGCAGAGCUCAACACAGCGUCGUAAACUGGCUCUGGCUAGACUGCC | 0.15
53 | GGCAGAGCUCAACACAGCGUUGCCAAGUGGCUGUGUUUAGACUGCC | 0.03
54 | GGCAGAGCUCAACACAGCGUCGCAAACUGGGAGUGGCUAGACUGCC | 0.01
55 | GGCAGAGCUCAACACAGCGUUGUAAAGUGGCUGUUGCUAUACUGCC | 0.16
56 | GGCAGAGCUCAACACAGCGUUGCAGAGUGGCUGUGGCUGGACUGCC | 0.06
57 | GGCAGAGCUCAACACAGCGUUGCAAAGUUGCUGUGGUUAGACUGCC | 0.01
58 | GGCAGAGCUCAACACAGCGUAGCAAAUUGGCUGGGGCUAGACUGCC | 1.82
59 | GGCAGAGCUCAACACAGCGUUGCAAACUGACUGCGGCUAGACUGAC | 0.1
60 | GGCAGAGCUCAACACAGCGUCGCAUAGUGGCUGCGGCUAGACUGCC | 0.54
61 | GGCAGAGCUCAACACAGCGUCGCAAAAAGGCUGUGGCUAGACUGCC | 0.68
62 | GGCAGAGCUCAACACAGCGUCGCAAAGUGGCUGUGGCAAGACUGCA | 1.26
63 | GGCAGAGCUCAACACAGCGUCGCAAAGUGCCUAUAGCUAGACUGCC | 0.05
64 | GGCAGAGCUCAACACAGCGUUGCAAAGUCGCUGUAGCUAGACUGCC | 0.07
65 | GGCAGAGCUCAACACAGCGUAGCAAACUGACUGUGGCUAGGCUGCC | 0.3
66 | GGCAGAGCUCAACACAGCGUUGCAAAGUUUCUGUGGCUAGAGUGCC | 0.3
67 | GGCAGAGCUCAACACAGCGUCGCAAAGUGGCUAUAACUAGACUGCC | 0.05
68 | GGCAGAGCUCAACACAGCGUAGCAAAGUCGCUGAGGCUAGACUGCA | 0.14
69 | GGCAGAGCUCAACACAGCGUUGCAAAGUGGCUGUGGCUAGGCUGCG | 0.36

Row | Variant | self-cleavage
70 | GGCAGAGCUCAACACAGCGUCGCAAAGUGGGUGUCGCUAGACUGCC | 0.07
71 | GGCAGAGCUCAACACAGCGUAGCAAAGUGGCUGUGGGUAGACCGCC | 0.07
72 | GGCAGAGCUCAACACAGCGUACCAAAGUGGCUGUCGCUAGACUGCC | 0.18
73 | GGCAGAGCUCAACACAGCGUAGCAAAGUGGCUGUGGGAAGACUGCC | 0.07
74 | GGCAGAGCUCAACACAGCGUCGCUAAGUGGCUGUGUCUAGACUGCC | 0.34
75 | GGCAGAGCUCAACACAGCGUAGUAAAGUGGCUGUGGGUAGACUGAC | 0.03
76 | GGCAGAGCUCAACACAGCGUAGCAAUGUGGCUGUGGCUAGACUUCC | 0.49
77 | GGCAGAGCUCAACACAGCGUUGCAAAUUAUCUGUGGCGAGAGUACC | 0.01
78 | GGCAGAGCUCAACACAGCGUAGCAAAGUGGCUGUGGCUAGACCGCU | 0.04
79 | GGCAGAGCUCAACACAGCGUAGCAAAGUUGCUGUAGCUAGACUGCC | 0.3
80 | GGCAGAGCUCAACACAGCGUUGCAAAGUGACUUUGGAUAGACUGCC | 0.04
81 | GGCAGAGCUCAACACAGCGUAGCAAAGUGGCUGUGUCCAGACUGCC | 0.02
82 | GGCAGAGCUCAACACAGCGUCGGAAAGUGGCUGUGGAUAGACUGCC | 0.01
83 | GGCAGAGCUCAACACAGCGUUGUAAAAUGGCUGUGGAUAUACUGCC | 0.04
84 | GGCAGAGCUCAACACAGCGUUGCAAAGUGCCUGUGGCUAGUCUGCC | 0.2
85 | GGCAGAGCUCAACACAGCGUAGCAAACGGGCUGUGUCUACACUGCC | 0.09
86 | GGCAGAGCUCAACACAGCGUCGCAACGUGGCUGUGUCUAGACUGCC | 0.02
87 | GGCAGAGCUCAACACAGCGUUGCAAAGUGGCUGUGGCUAGAAUGCA | 0.06
88 | GGCAGAGCUCAACACAGCGUAGCAAAUUAGCUGUGGCUAGACUGCC | 0.78
89 | GGCAGAGCUCAACACAGCGUUGCAAAGUGGGUGUGGCUUGUCUGCC | 0.07
90 | GGCAGAGCUCAACACAGCGUCCCAAAGUGGCUGUGGGUUGACUGCC | 0.01
91 | GGCAGAGCUCAACACAGCGUCCCAAAGUGGCUGUGGCUAGACUACU | 0.04
92 | GGCAGAGCUCAACACAGCGUACCAAAGUGGCUGAGGCUAUACUGCC | 0.05

Row | Variant | self-cleavage
93 | GGCAGAGCUCAACACAGCGUCGCAAAGUGGCUGUGGCUAAACUUCC | 0.33
94 | GGCAGAGCUCAACACAGCGUAGCAAUGUGGCUUUGGCUAGACUGCC | 0.13
95 | GGCAGAGCUCAACACAGCGUAGCAAAGUCGCGGUGGCUAGACUGCC | 1.18
96 | GGCAGAGCUCAACACAGCGUCGCAAAGUGGCUGUUGCUAGACACCC | 0.04
97 | GGCAGAGCUCAACACAGCGUUGCAAACGGGCUGUGGCUACACAGCC | 0.1
98 | GGCAGAGCUCAACACAGCGUAGCAAAGUGACAGUGGCUAAACUGCC | 0.05
99 | GGCAGAGCUCAACACAGCGUUGCAAAGUGGCUGUGGCUCGACUGGC | 0.21
100 | GGCAGAGCUCAACACAGCGUUGGAAAGUGGCUGUGGCUAGACUGCA | 0.19
101 | GGCAGAGCUCAACACAGCGUUGUAAAGUGGCUGUGGCGAGACUGCC | 0.04
102 | GGCAGAGCUCAACACAGCGUUGCAAAGUGGUUGUGGCUAGAGUGCC | 0.03
103 | GGCAGAGCUCAACACAGCGUAGCAACAUGGCUGUGGCUACACUGUC | 0.02
104 | GGCAGAGCUCAACACAGCGUCGCACAGGGGCUGUGGCUAGACUGCC | 0.37
105 | GGCAGAGCUCAACACAGCGUAGCAAAGUGGCUGUGGCUCGACUGCA | 0.3
106 | GGCAGAGCUCAACACAGCGUCGCAAAGUGGAUGUGGCUACACUGCC | 0.03
107 | GGCAGAGCUCAACACAGCGUUGCAAAGUGACUGUGGCUAGACUACC | 0.11
108 | GGCAGAGCUCAACACAGCGUAGCAAAGUGGCUGGGGCUAGACUGAC | 0.05
109 | GGCAGAGCUCAACACAGCGUAGCAAAGUAGCCGAGGCUAGACUGCC | 0.02
110 | GGCAGAGCUCAACACAGCGUUGCAACGUGGCUGAGGCUAGACUGCC | 0.17
111 | GGCAGAGCUCAACACAGCGUAGCAAAGUGGCUGUGGCUACACGGCC | 0.19
112 | GGCAGAGCUCAACACAGCGUCGCAAAUUGGCUAUGGCUACACUGCC | 0.03
